Screen size: about 410,000 compounds; about 5,000 (1.2%) were called active. The shares of active, inactive and inconclusive entries below differ from those in the screen. The call rests on the fitted dose curve; in most records, active means well fitted inhibition curve with a large enough effect; inconclusive means small, poorly fitted or top-dose-only effect; inactive means no such curve, though single readings can be large or run the other way. Where the call is inconclusive, the potency comes from a doubtful curve fit.
Assay: qHTS for Inhibitors of TGF-b; further: nearly all actives have a fitted effect of over 65% in size
Details: HepG2 CAGA-GFP TGF-b/SMAD3 reporter, GFP fluorescence, 18 h, TGF-beta stimulated, 500 pg/mL final; series mostly up to 46.1 µM
Method in brief: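 Per well, imaged GFP fluorescence of HEPG2 CAGA-GFP cells gives the signal; cells get compound, then TGF-beta (500 pg/mL final), 18 h at 37 degrees C; %Activity versus -TGF-beta and +DMSO controls.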
For `COc1ccc(N2C(=O)CCC(C(=O)NCCN3CCOCC3)C2c2ccc(OC)c(OC)c2)cc1` (stereo unspecified), the Potency was inconclusive: 3.55 µM [inhibitor, single point]. For `CCc1c(C)nc(SCCOc2ccc(OC)cc2)[nH]c1=O`, the Potency was “inactive”. For `N#CC1=C(N)OC2=C(CC/C2=C\c2ccccc2)C1c1ccccc1` (stereo unspecified), the Potency was “inactive”. For `COc1ccc(-c2ccc(C(=O)Nc3ccc(C(C)C)cc3)c3occc23)c(C)c1`, the Potency was “inactive”. For `Cc1nnc(SC(C)C(=O)N(C)C2CCCCC2)n1N` (stereo unspecified), the Potency was “inactive”. In the case of `CNC(=O)CCn1nc(-c2ccc(Cl)cc2)c2ccccc2c1=O`, the Potency is reported as inconclusive: 35.5 µM [inhibitor, partial curve, poor fit]. For `COc1ccc(/C=N/N2CCN(C3c4ccccc4-c4ccccc43)CC2)cc1O`, the Potency was inconclusive: 35.5 µM [inhibitor, single point]. With `O=C(O)CC(c1ccc(C(F)(F)F)cc1)N1Cc2ccccc2C1=O` (stereo unspecified) the Potency was “inactive”. With `COc1ccc(Cc2c(-c3ccccc3)nc3ccc(Cl)cn23)c(C)c1` the Potency was inconclusive: 35.5 µM [inhibitor, single point]. For `CCn1c(=O)cc(SCC(=O)N2CCN(c3cc(C)ccc3C)CC2)c2ccccc21`, the Potency was inconclusive: 35.5 µM [inhibitor, single point]. With `CCCCCN(C(=O)CCC(=O)OCc1ccc(Cl)cc1Cl)c1c(N)n(CCCC)c(=O)[nH]c1=O` the Potency was inconclusive: 11.2 µM [inhibitor, partial curve, poor fit]. With `COC(=O)c1[nH]c2cc(OC)ccc2c1NC(=O)CCN1CCN(c2cccc(C)c2C)CC1` the Potency was inconclusive: 35.5 µM [inhibitor, single point]. With `O=C(COc1ccc2cc(-c3ccccc3)c(=O)oc2c1)NCC1CCC(C(=O)O)CC1` (stereo unspecified) the Potency was inconclusive: 1.41 µM [inhibitor, partial curve, poor fit]. In the case of `COc1cc(C(=O)NC(C)C2CC3CCC2C3)cc(OC)c1OC` (stereo unspecified), the Potency is reported as “inactive”. With `N#CCN1CCN(CC(=O)c2ccc(Br)cc2)CC1` the Potency was “inactive”. In the case of `COc1ccc(-c2cc(C#N)nc(Cl)n2)cc1`, the Potency is reported as inconclusive: 11.2 µM [inhibitor, partial curve]. With `CNC(=O)CSc1ncnc2c1cnn2-c1ccccc1` the Potency was “inactive”. For `C/C(CC(=O)NCc1ccc(Cl)cc1)=N\NC(=O)Cc1ccccc1`, the Potency was inconclusive: 3.55 µM [inhibitor, partial curve, poor fit]. In the case of `CCc1ccc(C(=O)/C=C2\Sc3ccccc3NC2=O)cc1`, the Potency is reported as inconclusive: 35.5 µM [inhibitor, single point]. For `N#CC1=C(S)N(c2ccccc2)C(c2ccc(-c3ccc(Cl)c(Cl)c3)o2)NC1=O` (stereo unspecified), the Potency was inconclusive: 14.1 µM [inhibitor, single point]. With `Fc1cccc(/C=N/n2c(C3CCCCC3)n[nH]c2=S)c1` the Potency was inconclusive: 25.1 µM [inhibitor, single point]. In the case of `O=C(Nc1cccc([N+](=O)[O-])c1)Nc1ccc2c(c1)CCC2`, the Potency is reported as inconclusive: 35.5 µM [inhibitor, single point]. In the case of `CCn1c(=O)c2c(nc3n2CCCN3CCc2ccc(OC)c(OC)c2)n(C)c1=O`, the Potency is reported as inconclusive: 35.5 µM [inhibitor, single point]. For `O=C(CCCOc1ccc(Cl)cc1Cl)NC(Cc1ccccc1)C(=O)O` (stereo unspecified), the Potency was “inactive”. With `C[C@@H]1CN([C@H](C)CO)C(=O)CCCn2nncc2CO[C@@H]1CN(C)C(=O)Nc1ccc2c(c1)OCO2` the Potency was “inactive”. For `CSc1ncc(C(=O)Nc2ccccc2C(=O)c2ccccc2)c(C)n1`, the Potency was “inactive”. For `COC(=O)C1=C(C)N(Cc2ccccc2)C(=NCC(C)C)N[C@H]1c1cccc(F)c1`, the Potency was inconclusive: 31.6 µM [inhibitor, single point]. With `CCOC(=O)c1c(C)[nH]c(C)c1S(=O)(=O)NCC(=O)N(C)c1ccc(C)c(C)c1` the Potency was “inactive”. For `O=C(NCC1CC1(Cl)Cl)Nc1ccc(Cl)c(Cl)c1` (stereo unspecified), the Potency was inconclusive: 35.5 µM [inhibitor, single point]. For `COC(=O)c1cc(NCc2ccccc2F)ccc1N1CCOCC1`, the Potency was inconclusive: 10 µM [inhibitor, partial curve, poor fit]. With `Cc1scc(C(=O)O)c1-c1c(C(=O)O)csc1C` the Potency was inconclusive: 11.2 µM [inhibitor, partial curve]. For `NC(=S)N/N=C\c1c(OCc2ccccc2Cl)ccc2ccccc12`, the Potency was active: 6.31 µM. For `Cc1nc(-c2ccccn2)sc1C(=O)O`, the Potency was “inactive”. With `COCCOc1cc(N(CC(=O)N(C)C)S(=O)(=O)c2ccccc2)c(Cl)cc1Cl` the Potency was “inactive”. With `CCC(=O)N1CCCc2cc(S(=O)(=O)Nc3ccc(C)c(C)c3)ccc21` the Potency was inconclusive: 25.1 µM [inhibitor, partial curve, poor fit]. In the case of `COc1ccc(OC)c(NC(=O)c2cc3ccccc3o2)c1`, the Potency is reported as “inactive”. In the case of `COc1ccc2[nH]c(C(=O)N3CCC(CO)(Cc4cccc(C(F)(F)F)c4)CC3)c(C)c2c1`, the Potency is reported as inconclusive: 31.6 µM [inhibitor, single point]. In the case of `CCOc1ccc(CNc2ccc(N3CCCC3)cc2)cc1`, the Potency is reported as inconclusive: 17.8 µM [inhibitor, partial curve, poor fit]. For `COc1ccc(OC)c(S(=O)(=O)N2CCN(c3ccccn3)CC2)c1`, the Potency was inconclusive: 35.5 µM [inhibitor, single point]. In the case of `S=C(NCc1ccco1)N/N=C/c1ccc(Cl)cc1`, the Potency is reported as active: 12.6 µM. For `N#Cc1ccccc1NC(=O)C(=O)NCC(c1ccc2c(c1)OCO2)N1CCN(c2ccccc2)CC1` (stereo unspecified), the Potency was “inactive”. For `Cc1cc(Cl)ccc1OC(C)C(=O)N1CCCN(C(=O)C(C)Oc2ccc(Cl)cc2C)CC1` (stereo unspecified), the Potency was inconclusive: 2.82 µM [inhibitor, full curve, poor fit]. With `COc1ccccc1C(CNC(=O)c1ccc(-c2ccccc2Cl)o1)N1CCCC1` (stereo unspecified) the Potency was inconclusive: 28.2 µM [inhibitor, single point]. For `Cc1ccc(C(=O)Nc2ccccc2F)cc1S(=O)(=O)N1CCOCC1`, the Potency was “inactive”. With `CCCNC(=O)C(Cc1ccc(I)cc1)NC(=O)c1ccc2ccccc2n1` (stereo unspecified) the Potency was inconclusive: 20 µM [inhibitor, single point]. For `CC1(C)Cc2c(cnn2-c2ccc(F)cc2)C(NC(=O)CCn2cncn2)C1` (stereo unspecified), the Potency was inconclusive: 22.4 µM [inhibitor, single point]. With `Cc1cccc(/N=C/c2c(C)[nH]n(-c3ccccc3)c2=O)n1` the Potency was inconclusive: 15.8 µM [inhibitor, single point]. In the case of `CS(=O)(=O)N1CCN(C(=O)c2csc3ccccc23)CC1`, the Potency is reported as “inactive”. In the case of `COc1cc(/C=N/NC(=O)c2ccccn2)ccc1OC(=O)c1ccc(Br)cc1`, the Potency is reported as “inactive”. For `CCOC(=O)N1CCC(NS(=O)(=O)c2ccc3c(c2)OCC(=O)N3)CC1`, the Potency was “inactive”. For `COc1ccc(C2Nc3ccccc3-c3nnc(SC)nc3O2)cc1C` (stereo unspecified), the Potency was “inactive”. In the case of `COc1cc(C2c3c(oc4ccc(C)cc4c3=O)C(=O)N2Cc2ccc(F)cc2)ccc1O` (stereo unspecified), the Potency is reported as inconclusive: 15.8 µM [inhibitor, partial curve, poor fit]. In the case of `Cc1cccc(Nc2nnc(SCC(=O)Nc3ccccc3[N+](=O)[O-])s2)c1`, the Potency is reported as inconclusive: 3.55 µM [inhibitor, single point]. For `CCOC(=O)C1=C(CSc2nc3c(cc2C#N)CN(C)CC3)OC(N)=C(C#N)C1c1ccc(Cl)cc1` (stereo unspecified), the Potency was “inactive”. For `Cc1ccccc1-c1cnc(C(O)c2ccc(Cl)c(F)c2)[nH]1` (stereo unspecified), the Potency was “inactive”. In the case of `Cc1cc(C)c2c(C)c(C(=O)N3CCC(c4nc5ccccc5s4)CC3)oc2c1`, the Potency is reported as inconclusive: 35.5 µM [inhibitor, single point]. For `COc1ccccc1C(=O)NCCC(=O)NCC(c1ccco1)N1CCCC1` (stereo unspecified), the Potency was “inactive”. With `CCOC(=O)C[C@H]1c2cc(F)ccc2S(=O)(=O)N1C1CCCCC1` the Potency was inconclusive: 6.31 µM [inhibitor, single point]. With `Cc1cc(-c2nnc3n2N=C(c2ccc(-c4ccccc4)cc2)CS3)n[nH]1` the Potency was inconclusive: 35.5 µM [inhibitor, single point]. With `O=C(CN(C(=O)c1csnn1)c1cccc(F)c1)NCc1ccc2c(c1)OCO2` the Potency was “inactive”. In the case of `CCn1cc(CN2CCC(C(=O)Nc3cccc(-c4cccc(Cl)c4)c3)CC2)cn1`, the Potency is reported as inconclusive: 20 µM [inhibitor, single point]. In the case of `CN(C(=O)c1cccs1)c1ccc(OCC(=O)N2CCC(C(N)=O)CC2)cc1`, the Potency is reported as “inactive”. In the case of `COc1ccc(-c2cc(=O)oc3cc(OCC(=O)Nc4ccc(CCO)cc4)ccc23)cc1`, the Potency is reported as “inactive”. In the case of `CCn1c2ccc(F)cc2c2nnc(SCCN3CCCCC3)nc21`, the Potency is reported as inconclusive: 35.5 µM [inhibitor, single point]. In the case of `Cc1ccc(NC(=O)c2ncn(CCCNCCCc3ccccc3)n2)cc1C`, the Potency is reported as inconclusive: 17.8 µM [inhibitor, single point]. For `CC(CCc1ccco1)NC(=O)c1cccc2c1C(=O)N(C1CCCCC1)C2` (stereo unspecified), the Potency was inconclusive: 35.5 µM [inhibitor, single point]. For `COc1ccc(C(=O)CSc2nc3ccccc3n2CC(=O)NC(C)(C)C)cc1`, the Potency was inconclusive: 3.55 µM [inhibitor, partial curve, poor fit]. In the case of `COc1ccc2nc(/C=N/NC(=O)[C@H](CCSC)NC(=O)OC(C)(C)C)ccc2c1`, the Potency is reported as “inactive”. With `CCOC(=O)c1[nH]c2cc3c(cc2c1NC(=O)CN1CCC2(CC1)OCCO2)OCO3` the Potency was inconclusive: 3.98 µM [inhibitor, single point]. For `COc1cc(C(O)c2nc(-c3cccc(C(C)C)c3)cs2)ccc1F` (stereo unspecified), the Potency was inconclusive: 31.6 µM [inhibitor, single point]. For `CCOC(=O)c1c(NC(=O)CSc2nnc(C)s2)sc2c1CCC(C)C2` (stereo unspecified), the Potency was inconclusive: 15.8 µM [inhibitor, single point].

From PubChem BioAssay AID588855 (National Center for Advancing Translational Sciences (NCATS), 2011)
Potency means the concentration at half of the fitted maximal effect; tags describe the fitted curve by direction and shape.
